This sample is rich in variants without activity.
B1: TPR 5TU (parent)
chain: GGAUCUUCUCGAUCUAACAAAAAAGACAAAUCUGCCACAAAGCUUGAGAGCAUCUUCGGAUGCAGAGGCGGCAGCCUUCGGUGGCGCGAUAGCGCCAACGUUCUCAACUAUGACACGCAAAACGCGUGCUCCGUUGAAUGGAGUUUAUCAUG

Variants of: B1
Assay: polymerase ribozyme fitness, log enrichment relative to wild type (log ratio); higher = more active; in vitro selection for triplet polymerase activity
In short: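 PCR was used to build mutant libraries for each subunit of a heterodimeric triplet polymerase ribozyme, which were then transcribed. A single in vitro selection round, in triplicate, used a frozen incubation at −7 °C and recovered extended constructs by gel excision, streptavidin beads and RT-PCR. Fitness is the logarithm of genotype enrichment relative to wild-type enrichment, averaged over replicates with inverse-variance weights. The logarithm is base 2, and after Illumina sequencing only genotypes with ≥10 input reads and ≥1 read per output were kept.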

Row | Variant | polymerase ribozyme fitness (log ratio)
1 | U82G G100U G128A | ≤ -4.2
2 | U82G U102G G152U | ≤ -4.2
3 | G83A A91C A142G | ≤ -4.2
4 | G83A A97U | 0.538
5 | G83A A107C C116A | ≤ -4.2
6 | G83A C85A | ≤ -4.2
7 | G83A C85U A106C C132G G140A | ≤ -4.2
8 | G83A C93G C95U A98U C108G | ≤ -4.2
9 | G83A C93G C108U | ≤ -4.2
10 | G83A G86U A107C | ≤ -4.2
11 | G83A G86U C118U | -3.81
12 | G83A G141U | -0.659
13 | G83A U102C C103G U145G | ≤ -4.2
14 | G83A U146G | -1.33
15 | G83C A91U | ≤ -4.2
16 | G83C A91U C96A | ≤ -4.2
17 | G83C A106G | -0.352
18 | G83C A106G G112A A142U | ≤ -4.2
19 | G83C A115U A120U | -1.99
20 | G83C C93U | -2.49
21 | G83C C95G | ≤ -4.2
22 | G83C C95G U148G | ≤ -4.2
23 | G83C C103A U127A G143U | ≤ -4.2
24 | G83C C116U A120C U135G | -3.87

Row | Variant | polymerase ribozyme fitness (log ratio)
25 | G83C C118A A142G | -2.35
26 | G83C C118U | -1.34
27 | G83C G140A U148A | ≤ -4.2
28 | G83U A98C A115G | -1.62
29 | G83U A115C | -0.337
30 | G83U A120U A137C | -3.31
31 | G83U A142C U145C | -3.76
32 | G83U A150G | -3.14
33 | G83U C87A | ≤ -4.2
34 | G83U C87U A89C C123A C125U | -1.33
35 | G83U C87U U127G U130A U146A G152C | ≤ -4.2
36 | G83U C93U | -2.69
37 | G83U C132U | -1.33
38 | G83U G88C C123G U148G C149U | ≤ -4.2
39 | G83U G94C C149A | ≤ -4.2
40 | G83U G94U C95A | -1.62
41 | G83U G128U | -3.22
42 | G83U U90G C99A A107U U148A | ≤ -4.2
43 | G83U U102C | -1.16
44 | G84A A89U C103A C105U U148G | ≤ -4.2
45 | G84A A91U G126U G143U | ≤ -4.2
46 | G84A A97G | -2.34
47 | G84A A97G C129A G152A | -4
48 | G84A A106C U109G A137G A150C | ≤ -4.2

Row | Variant | polymerase ribozyme fitness (log ratio)
49 | G84A A106U G141U | -0.79
50 | G84A A150C | -3
51 | G84A C85A A91G U109G C125G | ≤ -4.2
52 | G84A C85U G88A C99A C131G U139C | ≤ -4.2
53 | G84A C85U U90A C96G C105U A138C U148C C149U U151C | ≤ -4.2
54 | G84A C87G C95A G124A A147U | ≤ -4.2
55 | G84A C93U C108G A137U | ≤ -4.2
56 | G84A C95G G141C | -0.311
57 | G84A C96A A119U | -1.11
58 | G84A C103G C149U | -3.35
59 | G84A C108A | ≤ -4.2
60 | G84A C118A A142C U144C | ≤ -4.2
61 | G84A C118A U146C | -1.34
62 | G84A C131G | -3.02
63 | G84A G88A A137U | ≤ -4.2
64 | G84A G94C C116G C118A G141A | ≤ -4.2
65 | G84A G112A U139A | ≤ -4.2
66 | G84A G117U U139G U145C | -0.527
67 | G84A G124A | -0.287
68 | G84A G133C G141C | -2.83
69 | G84A G136A | -0.313
70 | G84A U90A | ≤ -4.2
71 | G84A U90G C96G | ≤ -4.2
72 | G84A U101A A115U A121G G124A | ≤ -4.2

Row | Variant | polymerase ribozyme fitness (log ratio)
73 | G84A U102A | -1.01
74 | G84A U127C U139G A142C | -3.93
75 | G84A U134C | -0.573
76 | G84A U134G | -2.31
77 | G84A U144A U146C U148C | ≤ -4.2
78 | G84A U145A | 0.189
79 | G84C A106U A113U U144G | ≤ -4.2
80 | G84C A115G | -2.49
81 | G84C C87A | ≤ -4.2
82 | G84C C116A A119G U144C | ≤ -4.2
83 | G84C C118A U148A | ≤ -4.2
84 | G84C G92C A106U C149U | ≤ -4.2
85 | G84C G117C | -1.73
86 | G84U A89U U104G U127A | ≤ -4.2
87 | G84U A91G U144G | -1.53
88 | G84U A97U G136C | ≤ -4.2
89 | G84U A106U | -2.69
90 | G84U A107G C114U U144A | ≤ -4.2
91 | G84U A110U | ≤ -4.2
92 | G84U A120G | -2.16
93 | G84U A142G | -3.27
94 | G84U C85G | ≤ -4.2
95 | G84U C87A A98G C116A U134G U135A G136A | ≤ -4.2
96 | G84U C103A A122C G140A | ≤ -4.2

Row | Variant | polymerase ribozyme fitness (log ratio)
97 | G84U C103U A137C | ≤ -4.2
98 | G84U C123A | -1.79
99 | G84U G92C A110C | ≤ -4.2
100 | G84U G92C C99U | ≤ -4.2
101 | G84U G117U C123U G141A U146A | ≤ -4.2
102 | G84U G136A G141C | -1.29
103 | G84U G140U | ≤ -4.2
104 | G84U U101G G126C | -1.67
105 | G84U U104G C125A | -3.09
106 | G84U U144A | -3.22
107 | C85A | -1.28
108 | C85A A91G G94A A120U G143U | ≤ -4.2
109 | C85A A98G C116U A120C A147U | 0.389
110 | C85A A98U C108A U134G | ≤ -4.2
111 | C85A A115G U148A | ≤ -4.2
112 | C85A A137G | -2.96
113 | C85A A150C | ≤ -4.2
114 | C85A C87A U148C | ≤ -4.2
115 | C85A C87U A119U | ≤ -4.2
116 | C85A C93U | ≤ -4.2
117 | C85A C96A | -2.22
118 | C85A C103A G152A | ≤ -4.2
119 | C85A C114U G143A | ≤ -4.2
120 | C85A C125A C129A U139G | ≤ -4.2

Row | Variant | polymerase ribozyme fitness (log ratio)
121 | C85A G88C U146G | ≤ -4.2
122 | C85A G88U C95G A97C | ≤ -4.2
123 | C85A G92C G141A G143U | ≤ -4.2
124 | C85A G92U G117U | -2.26
125 | C85A G94A G128C | -3.21
126 | C85A G112U | ≤ -4.2
127 | C85A G117A | -1.76
128 | C85A G124C | -1.69
129 | C85A G126A | -1.32
130 | C85A G133U | ≤ -4.2
131 | C85A G136C | -4.19
132 | C85A G140A | -4.18
133 | C85A U127A | -3.68
134 | C85A U139C U145C | ≤ -4.2
135 | C85A U144G | -0.777
136 | C85A U148C | -2.22
137 | C85G | -2.05
138 | C85G A89G | ≤ -4.2
139 | C85G A91U | ≤ -4.2
140 | C85G A97C U102A C103A G124C A137U | ≤ -4.2
141 | C85G A97G U139G | ≤ -4.2
142 | C85G A97U | ≤ -4.2
143 | C85G A106G | -2.59
144 | C85G A106G A119G C131A U151A G152U | ≤ -4.2

Row | Variant | polymerase ribozyme fitness (log ratio)
145 | C85G A142C | -2.98
146 | C85G C87A A119U G141U | ≤ -4.2
147 | C85G C93G G136A A142C | ≤ -4.2
148 | C85G C93U C116U U127G | ≤ -4.2
149 | C85G C96U | -2.26
150 | C85G C108A | ≤ -4.2
151 | C85G C108G G112U | ≤ -4.2
152 | C85G C114A | ≤ -4.2
153 | C85G C118A U146C | -2.72
154 | C85G C125U | -3.35
155 | C85G C131U A138U U148A | ≤ -4.2
156 | C85G G86A | -3.83
157 | C85G G117C G136A C149G | ≤ -4.2
158 | C85G G117U G133U U148A | ≤ -4.2
159 | C85G G128C U146C | ≤ -4.2
160 | C85G G133C U139A | ≤ -4.2
161 | C85G G143C U148C | ≤ -4.2
162 | C85G U90A C114A | ≤ -4.2
163 | C85G U90C A110U | ≤ -4.2
164 | C85G U102G C129U A150C | ≤ -4.2
165 | C85G U102G U109G G112A | ≤ -4.2
166 | C85G U135C A138C | ≤ -4.2
167 | C85G U139C G143A | ≤ -4.2

From the RNAGym collection of RNA variant scans (doi:10.1073/pnas.2313332121)
